Laboratory results from a collection of fitness landscapes (doi:10.1016/j.celrep.2020.107928).
In all, about 81,000 sequences were measured (“one-hybrid fitness for binding parS DNA”: median about -0.17, highest 2% from about 0.51 on). The list shows a part of the results.

B1: Caulobacter ParB omega fusion; a variant is named by its letters at X, in order, B8GW30 (parent)
chain: MESVVVGEPGMSEGRRGLGRGLSALLGEVDAAPAQAPGEQLGGSREAPIEILQRNPDQPRRTFREEDLEDLSNSIREKGVLQPILVRPSPDTAGEYQIVAGERAWRAAQRAGLKTVPIMVRELDDLAVLEIGIIENVQRADLNVLEEALSYKVLMEKFERTQENIAQTIGKSXSHVANXMRLLXLPDEVQSYLVSGELTAXHARAIAAAADPVALAKQIIEGGLSVRETEALARKAPNLSAGKSKGGRPPRVKDTDTQALESDLSSVLGLDVSIDHRGSTGTLTITYATLEQLDDLCNRLTRGI

Variants of: B1
Assay: one-hybrid fitness for binding parS DNA (scaled: cognate 1, non-cognate 0); higher = stronger binding
Conditions: with parS DNA site
Outline: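 Caulobacter ParB libraries with four specificity codons randomised were screened by bacterial one-hybrid selection in the E. coli USO strain, using a HIS3 reporter whose site lies 19 bp from the promoter. Selection ran for 48 hours at 37°C on M9 lacking histidine, with 0.1 mM IPTG and 5 mM 3-AT. Plasmids were Illumina-sequenced before and after selection, three replicate libraries were pooled, and variants with under 10 reads were dropped. Fitness is the log change in each variant's read ratio to wild type, rescaled against the cognate and non-cognate sites.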

Row | Variant | one-hybrid fitness for binding parS DNA
1 | SDGC | ≤ 0.2
2 | QFDT | ≤ 0.2
3 | RVGI | ≤ 0.2
4 | IMMD | ≤ 0.2
5 | RMHN | 0.482
6 | RTKQ | ≤ 0.2
7 | VQAG | ≤ 0.2
8 | YIIR | ≤ 0.2
9 | QQRI | ≤ 0.2
10 | VMFK | ≤ 0.2
11 | TYQN | ≤ 0.2
12 | GLET | ≤ 0.2
13 | QTDP | ≤ 0.2
14 | PRSF | ≤ 0.2
15 | SSER | ≤ 0.2
16 | MHVG | ≤ 0.2
17 | LHGF | ≤ 0.2
18 | PDSS | ≤ 0.2
19 | WSPE | ≤ 0.2
20 | HPMT | ≤ 0.2
21 | RPEL | ≤ 0.2

Row | Variant | one-hybrid fitness for binding parS DNA
22 | LAVG | ≤ 0.2
23 | VTTA | ≤ 0.2
24 | LVWE | ≤ 0.2
25 | FSFL | 0.297
26 | VIPA | ≤ 0.2
27 | KNAP | ≤ 0.2
28 | YQKS | ≤ 0.2
29 | GSYF | ≤ 0.2
30 | PKAF | ≤ 0.2
31 | YPPA | ≤ 0.2
32 | IDRT | ≤ 0.2
33 | ASEH | ≤ 0.2
34 | QNRS | ≤ 0.2
35 | GYTF | ≤ 0.2
36 | DKAC | ≤ 0.2
37 | LMWC | ≤ 0.2
38 | TTSD | ≤ 0.2
39 | RNHR | ≤ 0.2
40 | PYPL | ≤ 0.2
41 | HNDV | ≤ 0.2
42 | PLCP | ≤ 0.2

Row | Variant | one-hybrid fitness for binding parS DNA
43 | FVTR | ≤ 0.2
44 | NGQR | ≤ 0.2
45 | RGIT | 0.278
46 | KAIY | ≤ 0.2
47 | KVTR | ≤ 0.2
48 | QCGL | ≤ 0.2
49 | NFTP | ≤ 0.2
50 | TRNT | ≤ 0.2
51 | NGPG | ≤ 0.2
52 | DCDA | ≤ 0.2
53 | MMRV | ≤ 0.2
54 | QEHG | ≤ 0.2
55 | QSPK | ≤ 0.2
56 | ACPL | ≤ 0.2
57 | WWKC | ≤ 0.2
58 | PLQN | ≤ 0.2
59 | DPDA | ≤ 0.2
60 | MRAL | ≤ 0.2
61 | SPII | ≤ 0.2
62 | SHCC | ≤ 0.2
63 | CMRR | ≤ 0.2

Row | Variant | one-hybrid fitness for binding parS DNA
64 | AHFD | ≤ 0.2
65 | AVVW | ≤ 0.2
66 | MLRR | ≤ 0.2
67 | SYTK | ≤ 0.2
68 | KIRA | ≤ 0.2
69 | TWRV | ≤ 0.2
70 | VPLK | ≤ 0.2
71 | QFPW | ≤ 0.2
72 | LHKS | ≤ 0.2
73 | PDLL | ≤ 0.2
74 | WFEC | ≤ 0.2
75 | QDNW | ≤ 0.2
76 | WDAS | ≤ 0.2
77 | DRDS | ≤ 0.2
78 | QWNS | ≤ 0.2
79 | ELMM | ≤ 0.2
80 | IYNS | ≤ 0.2
81 | EKSF | ≤ 0.2
82 | QGSM | ≤ 0.2
83 | PAPI | ≤ 0.2
84 | QLGY | ≤ 0.2
